In one assay the target is 5-HT1A receptor (Homo sapiens (Human), UniProt P08908). Description: 5-HT1A receptor binding test. To be noted: [3H]8-OH-DPAT, HEK-293 cells expressing 5-HT1A receptors. As for the experimental part:
Cells: HEK-293 cells stably expressing 5-HT1A receptors as obtained by gene recombination are cultured for 3-5 days in cell culture medium DMEM supplemented with 10% serum.
Competitive inhibition ratio of each compound at the concentration of 10 μmol/L to inhibit the binding of [^3H]8-OH-DPAT to 5-HT1A receptor is determined for primary screening.
The components are mixed to homogeneity, and then the above tubes are transferred to water bath at 30° C. (1 h), removed into ice bath immediately, and suction filtered on Harvest (with ice cold Tris eluate for 5 times).

The target of assay [1] is human recombinant D3 receptor (Homo sapiens (Human), UniProt P35462). Description: Dopamine D3 receptor binding test. To be noted: [3H]methyl-spiperone 0.3 nM, human recombinant D3 receptor in CHO cells; read-out: Affinity of the compound to D3 receptor, Ki value. As for the experimental part:
With [^3H]methyl-spiperone (0.3 nM) as the ligand and (+)-butaclamol (10 LM) for determining non-specific binding, binding tests are carried out on human recombinant D3 receptor (expressed in CHO cells).

The target of the next assay is D2 receptor (Homo sapiens (Human), UniProt P14416). Kind of assay: Dopamine D2 receptor binding test. To be noted: [3H]Spiperone, D2 receptor expressed in HEK293 cells; read-out: Affinity of the compound to D2 receptor, Ki value. The source says: This experiment utilizes the plasmid vector containing the gene of D2 receptor protein for transfecting HEK293 cells by calcium phosphate transfection method.
UniProt P14416, sequence (P14416 whole entry): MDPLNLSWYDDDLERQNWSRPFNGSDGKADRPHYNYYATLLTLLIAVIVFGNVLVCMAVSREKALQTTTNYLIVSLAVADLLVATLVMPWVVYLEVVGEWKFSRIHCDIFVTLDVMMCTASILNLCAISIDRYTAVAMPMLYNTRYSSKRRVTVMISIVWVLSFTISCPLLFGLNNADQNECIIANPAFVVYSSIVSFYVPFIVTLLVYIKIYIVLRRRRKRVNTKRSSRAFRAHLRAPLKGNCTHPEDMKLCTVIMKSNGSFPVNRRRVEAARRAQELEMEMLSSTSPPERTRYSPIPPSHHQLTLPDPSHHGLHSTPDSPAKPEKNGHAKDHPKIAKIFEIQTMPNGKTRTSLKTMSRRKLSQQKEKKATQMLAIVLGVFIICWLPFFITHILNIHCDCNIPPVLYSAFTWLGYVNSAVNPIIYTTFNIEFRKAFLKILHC
(§1) Beckman LS-6500 multifunction liquid scintillation counter.

The target of another assay is 5-HT2A receptor (Homo sapiens (Human), UniProt P28223). Description: 5-HT2A receptor binding test.
UniProt P28223, sequence (P28223 whole entry): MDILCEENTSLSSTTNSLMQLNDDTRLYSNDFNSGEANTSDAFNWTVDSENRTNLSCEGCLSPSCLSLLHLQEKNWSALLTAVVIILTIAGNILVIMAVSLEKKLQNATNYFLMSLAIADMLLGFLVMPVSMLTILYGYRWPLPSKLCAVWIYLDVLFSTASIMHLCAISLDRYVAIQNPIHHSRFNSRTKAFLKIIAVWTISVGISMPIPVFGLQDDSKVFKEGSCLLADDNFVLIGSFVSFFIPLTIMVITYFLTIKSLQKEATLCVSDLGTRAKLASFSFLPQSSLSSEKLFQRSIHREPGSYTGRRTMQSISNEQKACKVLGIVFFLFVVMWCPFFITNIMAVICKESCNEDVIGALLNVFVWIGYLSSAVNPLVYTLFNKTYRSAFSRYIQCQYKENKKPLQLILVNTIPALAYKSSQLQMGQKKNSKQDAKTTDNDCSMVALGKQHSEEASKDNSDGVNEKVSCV
Source text: as §1

Where [2] appears, read: read-out: Affinity of the compound to 5-HT1A receptor, Ki value.
[3] abbreviates: read-out: Affinity of the compound to 5-HT2A receptor, Ki value, [3H]-Ketanserin, 5-HT2A receptor expressed in HEK293 cells.
Setting [4] is: read-out: Affinity of the compound to 5-HT2A receptor, Ki value.

Read-outs that look alike come from different tables or passages of the source.

UniProt P35462, sequence (P35462 whole entry): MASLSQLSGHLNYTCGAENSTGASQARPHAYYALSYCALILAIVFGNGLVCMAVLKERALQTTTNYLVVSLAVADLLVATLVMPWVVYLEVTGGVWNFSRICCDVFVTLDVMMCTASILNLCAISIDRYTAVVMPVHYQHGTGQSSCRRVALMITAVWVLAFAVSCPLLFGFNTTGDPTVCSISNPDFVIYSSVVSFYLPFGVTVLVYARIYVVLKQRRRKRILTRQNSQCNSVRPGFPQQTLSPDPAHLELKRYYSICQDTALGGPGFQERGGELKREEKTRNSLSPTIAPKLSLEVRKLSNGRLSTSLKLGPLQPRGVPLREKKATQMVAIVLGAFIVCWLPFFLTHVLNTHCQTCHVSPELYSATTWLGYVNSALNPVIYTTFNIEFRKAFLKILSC
UniProt P08908, sequence (P08908 whole entry): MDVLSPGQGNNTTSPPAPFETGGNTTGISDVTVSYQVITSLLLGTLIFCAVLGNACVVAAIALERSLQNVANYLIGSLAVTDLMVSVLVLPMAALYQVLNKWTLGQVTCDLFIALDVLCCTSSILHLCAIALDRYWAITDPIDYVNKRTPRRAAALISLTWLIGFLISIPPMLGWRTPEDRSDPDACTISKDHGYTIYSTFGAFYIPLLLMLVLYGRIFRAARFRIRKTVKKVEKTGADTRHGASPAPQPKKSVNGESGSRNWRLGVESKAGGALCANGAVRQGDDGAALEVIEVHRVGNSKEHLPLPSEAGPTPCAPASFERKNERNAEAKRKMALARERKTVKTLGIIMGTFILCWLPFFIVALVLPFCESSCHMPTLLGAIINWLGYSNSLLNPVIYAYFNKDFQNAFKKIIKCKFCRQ

For orientation: Ki means the dissociation constant of the complex between target and ligand, obtained from inhibition or displacement. As for `O=C(N[C@H]1CC[C@H](CCN2CCN(c3nsc4ccccc34)CC2)CC1)c1cccs1` [Compound I-2, trans-N-(4-(2-(4-(benzo[d]isothiazol-3-yl)piperazin-1-yl)ethyl)cyclohexyl)thienyl-2-carboxamide], the inhibitory constant (Ki) is 1.1 nM at 5-HT1A receptor (setting [2]), 0.056 nM in assay [1], 0.19 nM on D2 receptor and 0.15 nM on 5-HT2A receptor (setting [3]).
Turning to `O=C(N[C@H]1CC[C@H](CCN2CCN(c3nsc4ccccc34)CC2)CC1)c1ccc[nH]1` [Compound I-3, trans-N-(4-(2-(4-(benzo[d]isothiazol-3-yl)piperazin-1-yl)ethyl)cyclohexyl)-1H-pyrrolyl-2-carboxamide], the Ki is 0.52 nM on 5-HT1A receptor (setting [2]), 0.31 nM in assay [1], 0.21 nM at D2 receptor and 0.29 nM at 5-HT2A receptor (setting [4]).
For `O=C(N[C@H]1CC[C@H](CCN2CCN(c3nsc4ccccc34)CC2)CC1)c1cc2ccccc2o1` [Compound I-5, trans-N-(4-(2-(4-(benzo[d]isothiazol-3-yl)piperazin-1-yl)ethyl)cyclohexyl)benzofuryl-2-carboxamide], the Ki on 5-HT1A receptor (setting [2]) was determined as 8.96 nM; in assay [1], 0.078 nM; on D2 receptor it was 0.32 nM; on 5-HT2A receptor (setting [3]), 0.86 nM.
Regarding `N#Cc1ccc(C(=O)N[C@H]2CC[C@H](CCN3CCN(c4nsc5ccccc45)CC3)CC2)o1` [Compound I-7, trans-N-(4-(2-(4-(benzo[d]isothiazol-3-yl)piperazin-1-yl)ethyl)cyclohexyl)-5-cyano-furyl-2-carboxamide], the inhibition constant Ki on 5-HT1A receptor (setting [2]) was 4.01 nM; in assay [1], 3.21 nM; at D2 receptor it was 4.65 nM; on 5-HT2A receptor (setting [3]) it was 1.03 nM.
Take `CC(C)(C)c1ccoc1C(=O)N[C@H]1CC[C@H](CCN2CCN(c3nsc4ccccc34)CC2)CC1` [Compound I-8, trans-N-(4-(2-(4-(benzo[d]isothiazol-3-yl)piperazin-1-yl)ethyl)cyclohexyl)-3-tert-butyl furyl-2-carboxamide]: the inhibition constant (Ki) at 5-HT1A receptor (setting [2]) was determined as 10.2 nM; in assay [1], 2.78 nM; on D2 receptor it was 18.7 nM; on 5-HT2A receptor (setting [4]), 2.55 nM.
Regarding `CC(=O)c1ccc(C(=O)N[C@H]2CC[C@H](CCN3CCN(c4nsc5ccccc45)CC3)CC2)o1` [Compound I-10, trans 5-acetyl-N-(4-(2-(4-(benzo[d]isothiazol-3-yl)piperazin-1-yl)ethyl)cyclohexyl)furyl-2-carboxamide], the Ki was 5.19 nM on 5-HT1A receptor (setting [2]), 6.98 nM in assay [1], 5.04 nM at D2 receptor and 3.79 nM at 5-HT2A receptor (setting [4]).
Regarding `O=C(N[C@H]1CC[C@H](CCN2CCN(c3nsc4ccccc34)CC2)CC1)c1sccc1Br` [Compound I-12, trans-N-(4-(2-(4-(benzo[d]isothiazol-3-yl)piperazin-1-yl)ethyl)cyclohexyl)-3-bromothienyl-2-carboxamide], the Ki at 5-HT1A receptor (setting [2]) is 3.62 nM; in assay [1] it was 1.02 nM; at D2 receptor, 3.15 nM; at 5-HT2A receptor (setting [3]) it was 2.89 nM.
For `COc1ccc2oc(C(=O)N[C@H]3CC[C@H](CCN4CCN(c5nsc6ccccc56)CC4)CC3)cc2c1` [Compound I-16, trans-N-(4-(2-(4-(benzo[d]isothiazol-3-yl)piperazin-1-yl)ethyl)cyclohexyl)-5-methoxylbenzofuryl-2-carboxamide], the inhibition constant Ki on 5-HT1A receptor (setting [2]) was 6.2 nM; in assay [1] it was 1.87 nM; at D2 receptor it was 1.05 nM; at 5-HT2A receptor (setting [4]), 1.12 nM.
As to `O=C(Cc1cccs1)N[C@H]1CC[C@H](CCN2CCN(c3nsc4ccccc34)CC2)CC1` [Compound I-17, trans-N-(4-(2-(4-(benzo[d]isothiazol-3-yl)piperazin-1-yl)ethyl)cyclohexyl)-2-(thien-2-yl)acetamide], the Ki at 5-HT1A receptor (setting [2]) turned out to be 0.98 nM; in assay [1], 0.1 nM; at D2 receptor it was 0.27 nM; at 5-HT2A receptor (setting [3]) it was 1.02 nM.
The matching figures for `O=C(Cc1coc2ccccc12)N[C@H]1CC[C@H](CCN2CCN(c3nsc4ccccc34)CC2)CC1` [Compound I-18, trans-N-(4-(2-(4-(benzo[d]isothiazol-3-yl)piperazin-1-yl)ethyl)cyclohexyl)-2-(benzofuran-3-yl)acetamide]: 7.55 nM, 0.18 nM, 0.23 nM and 1.87 nM.
The matching figures for `O=C(N[C@H]1CC[C@@H](CCN2CCN(c3nsc4ccccc34)CC2)CC1)c1ccco1` [Compound I-19, cis-N-(4-(2-(4-(benzo[d]isothiazol-3-yl)piperazin-1-yl)ethyl)cyclohexyl)furyl-2-carboxamide]: 1.37 nM, 0.25 nM, 0.82 nM and 0.98 nM.
For the compound `O=C(N[C@H]1CC[C@@H](CCN2CCN(c3nsc4ccccc34)CC2)CC1)c1cccs1` [Compound I-20, cis-N-(4-(2-(4-(benzo[d]isothiazol-3-yl)piperazin-1-yl)ethyl)cyclohexyl)thienyl-2-carboxamide], the inhibition constant Ki at 5-HT1A receptor (setting [2]) is 3.06 nM; in assay [1] it was 0.19 nM; on D2 receptor it was 1.2 nM; at 5-HT2A receptor (setting [3]), 0.57 nM.
For `O=C(N[C@H]1CC[C@@H](CCN2CCN(c3nsc4ccccc34)CC2)CC1)c1ccc[nH]1` [Compound I-21, cis-N-(4-(2-(4-(benzo[d]isothiazol-3-yl)piperazin-1-yl)ethyl)cyclohexyl)-1H-pyrrolyl-2-carboxamide], the Ki at 5-HT1A receptor (setting [2]) amounted to 3.78 nM; in assay [1], 0.84 nM; on D2 receptor, 2.96 nM; at 5-HT2A receptor (setting [4]), 0.81 nM.
For `O=C(N[C@H]1CC[C@@H](CCN2CCN(c3nsc4ccccc34)CC2)CC1)c1cc2ccccc2o1` [Compound I-23, cis-N-(4-(2-(4-(benzo[d]isothiazol-3-yl)piperazin-1-yl)ethyl)cyclohexyl)benzofuryl-2-carboxamide], the Ki on 5-HT1A receptor (setting [2]) was found to be 5.48 nM; in assay [1] it was 1.04 nM; on D2 receptor, 1.73 nM; on 5-HT2A receptor (setting [3]), 1.78 nM.
With `O=C(N[C@H]1CC[C@@H](CCN2CCN(c3nsc4ccccc34)CC2)CC1)c1cc2ccccc2s1` [Compound I-24, cis-N-(4-(2-(4-(benzo[d]isothiazol-3-yl)piperazin-1-yl)ethyl)cyclohexyl)benzo[b]thienyl-2-carboxamide], the inhibitory constant (Ki) is 10.8 nM at D2 receptor and 2 nM on 5-HT2A receptor (setting [4]).
For `O=S(=O)(N[C@H]1CC[C@H](CCN2CCN(c3nsc4ccccc34)CC2)CC1)c1cc[nH]c1` [II-2, trans-N-(4-(2-(4-(benzo[d]isothiazol-3-yl)piperazin-1-yl)ethyl)cyclohexyl)-1H-pyrrolyl-3-sulfamide], the Ki is 7.58 nM on 5-HT1A receptor (setting [2]), 0.57 nM in assay [1], 3.07 nM on D2 receptor and 1.06 nM on 5-HT2A receptor (setting [4]).
On to `O=S(=O)(N[C@H]1CC[C@H](CCN2CCN(c3nsc4ccccc34)CC2)CC1)c1cc2ccccc2s1` [II-4, trans-N-(4-(2-(4-(benzo[d]isothiazol-3-yl)piperazin-1-yl)ethyl)cyclohexyl)benzo[b]thienyl-2-sulfamide], for which the inhibition constant Ki at 5-HT1A receptor (setting [2]) is 5.79 nM; in assay [1], 1.03 nM; on D2 receptor, 1.69 nM; at 5-HT2A receptor (setting [3]) it was 0.88 nM.
Turning to `O=S(=O)(N[C@H]1CC[C@H](CCN2CCN(c3nsc4ccccc34)CC2)CC1)c1c[nH]c2ccccc12` [II-6, trans-N-(4-(2-(4-(benzo[d]isothiazol-3-yl)piperazin-1-yl)ethyl)cyclohexyl)-1H-indolyl-3-sulfamide], the Ki stood at 17.1 nM on 5-HT1A receptor (setting [2]), 2.76 nM in assay [1], 3.62 nM at D2 receptor and 1.47 nM at 5-HT2A receptor (setting [3]).
For the compound `N#Cc1ccc(S(=O)(=O)N[C@H]2CC[C@H](CCN3CCN(c4nsc5ccccc45)CC3)CC2)o1` [II-7, trans-N-(4-(2-(4-(benzo[d]isothiazol-3-yl)piperazin-1-yl)ethyl)cyclohexyl)-5-cyanofuryl-2-sulfamide], the Ki on 5-HT1A receptor was determined as 6.08 nM; in assay [1], 8.19 nM; at D2 receptor, 8.54 nM; on 5-HT2A receptor ([3H]-Ketanserin, 5-HT2A receptor expressed in HEK293 cells), 2.1 nM.
In the case of `CC(C)(C)c1ccc(S(=O)(=O)N[C@H]2CC[C@H](CCN3CCN(c4nsc5ccccc45)CC3)CC2)s1` [II-10, trans-N-(4-(2-(4-(benzo[d]isothiazol-3-yl)piperazin-1-yl)ethyl)cyclohexyl)-5-tert-butylthienyl-2-sulfamide], the inhibition constant Ki is 17.1 nM on D2 receptor and 5.58 nM at 5-HT2A receptor (setting [3]).
For `O=S(=O)(N[C@H]1CC[C@@H](CCN2CCN(c3nsc4ccccc34)CC2)CC1)c1cccs1` [II-16, cis-N-(4-(2-(4-(benzo[d]isothiazol-3-yl)piperazin-1-yl)ethyl)cyclohexyl)thienyl-2-sulfamide], the Ki on 5-HT1A receptor (setting [2]) came to 4.48 nM; in assay [1], 0.23 nM; on D2 receptor, 1.75 nM.
Take `O=S(=O)(N[C@H]1CC[C@@H](CCN2CCN(c3nsc4ccccc34)CC2)CC1)c1cc2ccccc2o1` [II-20, cis-N-(4-(2-(4-(benzo[d]isothiazol-3-yl)piperazin-1-yl)ethyl)cyclohexyl)benzofuryl-2-sulfamide]: the Ki on 5-HT1A receptor (setting [2]) came to 5.19 nM; in assay [1] it was 2.01 nM; on D2 receptor, 6.4 nM.
